From US20230285514A1, “STAPLED LACTAM CO-AGONISTS OF THE GLUCAGON AND GLP-1 RECEPTORS” (Merck Sharp & Dohme LLC, priority 2019, published 2023)
At least one peptide structure holds a part that was inferred or is arguable (an end, a ring closure or a residue). *1 amine or outer side, *2 acyl side, *3 side chain or, on linkers, in order; H or OH if unused. Where a SMILES comes first, the peptide text is derived from it. Bridges are numbered along the chain shown (N, C = ends). Side-chain parts run from the residue outwards. [ ]: non-standard residue; d: D form. The star is where a group is joined. γGlu = O=C(O)[C@H](CCC(=O)[*:2])N[*:1]; Met(O2) = CS(=O)(=O)CC[C@H](N)C(=O)O; Palmitoyl = CCCCCCCCCCCCCCCC(=O)*; Ac4c = NC1(C(=O)O)CCC1; Aib = CC(C)(N)C(=O)O

Target: T1, human GCGR (Homo sapiens, UniProt P47871)
T1 construct: expressed in transfected cells
T1 sequence (P47871 26-477): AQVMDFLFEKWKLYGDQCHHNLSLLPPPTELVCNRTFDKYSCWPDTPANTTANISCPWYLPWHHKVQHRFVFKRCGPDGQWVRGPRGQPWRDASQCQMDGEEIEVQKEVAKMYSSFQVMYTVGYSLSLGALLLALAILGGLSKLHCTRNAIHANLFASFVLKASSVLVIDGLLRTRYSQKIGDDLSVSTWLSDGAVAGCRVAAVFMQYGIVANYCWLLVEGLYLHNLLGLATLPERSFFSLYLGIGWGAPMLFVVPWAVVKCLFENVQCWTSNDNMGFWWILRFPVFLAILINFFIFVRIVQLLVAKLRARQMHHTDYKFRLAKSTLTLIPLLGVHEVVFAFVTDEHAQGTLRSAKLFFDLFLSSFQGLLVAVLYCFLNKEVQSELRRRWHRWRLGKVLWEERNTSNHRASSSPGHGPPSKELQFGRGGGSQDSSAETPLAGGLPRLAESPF
Test: cAMP activity assay, cells expressing human GCGR
Format: cell-based
Settings: for hGCGR/hGLPIR (hTone): ratio of human GCGR EC50 to human GLP1R EC50
Description: Activity of the peptides at the Glucagon receptor (GCGR) and GLP-1 receptor (GLP1R) was measured in a cAMP activity assay. Peptides were dissolved in 100% DMSO and serially diluted to generate 10 point titrations. The peptide solutions were then transferred into 384-well assay plates (150 nL/well). Assay ready frozen cells expressing human GLP1R or human GCGR were suspended in growth media consisting of DMEM medium (GIBCO), 10% FBS (GIBCO), 1×NEAA(GIBCO), 1×P/S (GIBCO), 10 ug/ml Blasticidin (GIBCO) and 200 μg/mL Hygromycin (GIBCO). […] The cell suspensions (15 μL) were then added to the assay plates containing the peptide solutions (30,000 cells/well for human GCGR; 10,000 cells/well for human GLP1R). […] Production of cAMP was determined using […] kits (DiscoverX) following manufacturer protocol. The plates were incubated for overnight at room temperature in the dark. Luminescence was measured using an EnVision Multilabel plate reader (Perkin Elmer). Native GLP-1 and Glucagon (Bachem) are used as control peptides.

Row | SMILES | hGCGR/hGLPIR (hTone) | EC50 (cAMP production, cells expressing human GCGR, 1 hour, table does not say whether with or without 20% human serum) [nM]
1 | CCCCCCCCCCCCCCCC(=O)N[C@@H](CCC(=O)N[C@@H](CCC(=O)NCCCC[C@H](NC(=O)[C@H](CC(=O)O)NC(=O)[C@H](CO)NC(=O)[C@@H](NC(=O)[C@H](Cc1ccccc1)NC(=O)[C@@H](NC(=O)CNC(=O)[C@H](CCC(N)=O)NC(=O)C(C)(C)NC(=O)[C@@H](N)Cc1c[nH]cn1)[C@@H](C)O)[C@@H](C)O)C(=O)N[C@@H](CO)C(=O)N[C@@H](CCCCN)C(=O)N[C@@H](Cc1ccc(O)cc1)C(=O)N[C@@H](CC(C)C)C(=O)N[C@@H](CC(=O)O)C(=O)NC1(C(=O)N[C@@H](CCCNC(=N)N)C(=O)N[C@@H](C)C(=O)N[C@@H](C)C(=O)N[C@H]2CCCCNC(=O)CC[C@@H](C(=O)N[C@@H](Cc3c[nH]c4ccccc34)C(=O)N[C@@H](CC(C)C)C(=O)N[C@@H](CCS(C)(=O)=O)C(=O)N[C@@H](CC(=O)O)C(=O)N[C@H](C(=O)N[C@@H](CCCCN)C(=O)N[C@@H](CCC(N)=O)C(=O)O)[C@@H](C)O)NC(=O)[C@H](C(C)C)NC(=O)[C@H](Cc3ccccc3)NC(=O)[C@H](CC(=O)O)NC2=O)CCC1)C(=O)O)C(=O)O [SEQ ID NO: 22] (H-H[Aib]QGTFTSDK([γGlu-γGlu-Palmitoyl])SKYLD[Ac4c]RAAKDFVEWL[Met(O2)]DTKQ-OH; lactam 20-24; N-terminus assumed) | 2.5 | –
2 | CCCCCCCCCCCCCCCC(=O)N[C@@H](CCC(=O)N[C@@H](CCC(=O)NCCCC[C@H](NC(=O)[C@H](CC(=O)O)NC(=O)[C@H](CO)NC(=O)[C@@H](NC(=O)[C@H](Cc1ccccc1)NC(=O)[C@@H](NC(=O)CNC(=O)[C@H](CCC(N)=O)NC(=O)C(C)(C)NC(=O)[C@@H](N)Cc1c[nH]cn1)[C@@H](C)O)[C@@H](C)O)C(=O)N[C@@H](CO)C(=O)N[C@@H](CCCCN)C(=O)N[C@@H](Cc1ccc(O)cc1)C(=O)N[C@@H](CC(C)C)C(=O)N[C@@H](CC(=O)O)C(=O)NC1(C(=O)N[C@@H](CCCNC(=N)N)C(=O)N[C@@H](C)C(=O)N[C@@H](C)C(=O)N[C@@H](CCC(N)=O)C(=O)N[C@@H](CC(=O)O)C(=O)N[C@@H](Cc2ccccc2)C(=O)N[C@H](C(=O)N[C@H]2CCCCNC(=O)CC[C@@H](C(=O)N[C@H](C(=O)N[C@@H](CCCCN)C(=O)N[C@@H](CCC(N)=O)C(=O)O)[C@@H](C)O)NC(=O)[C@H](CCS(C)(=O)=O)NC(=O)[C@H](CC(C)C)NC(=O)[C@H](Cc3c[nH]c4ccccc34)NC2=O)C(C)C)CCC1)C(=O)O)C(=O)O [SEQ ID NO: 23] (H-H[Aib]QGTFTSDK([γGlu-γGlu-Palmitoyl])SKYLD[Ac4c]RAAQDFVKWL[Met(O2)]ETKQ-OH; lactam 24-28; N-terminus assumed) | 16.48 | –
3 | CCCCCCCCCCCCCCCC(=O)N[C@@H](CCC(=O)N[C@@H](CCC(=O)NCCCC[C@H](NC(=O)[C@H](CC(=O)O)NC(=O)[C@H](CO)NC(=O)[C@@H](NC(=O)[C@H](Cc1ccccc1)NC(=O)[C@@H](NC(=O)CNC(=O)[C@H](CCC(N)=O)NC(=O)C(C)(C)NC(=O)[C@@H](N)Cc1c[nH]cn1)[C@@H](C)O)[C@@H](C)O)C(=O)N[C@@H](CO)C(=O)N[C@@H](CCCCN)C(=O)N[C@@H](Cc1ccc(O)cc1)C(=O)N[C@@H](CC(C)C)C(=O)N[C@@H](CC(=O)O)C(=O)NC(C)(C)C(=O)N[C@@H](CCCNC(=N)N)C(=O)N[C@@H](C)C(=O)N[C@@H](C)C(=O)N[C@@H](CCC(N)=O)C(=O)N[C@@H](CC(=O)O)C(=O)N[C@@H](Cc1ccccc1)C(=O)N[C@H](C(=O)N[C@H]1CCC(=O)NCCCC[C@@H](C(=O)N[C@H](C(=O)N[C@@H](CCCCN)C(=O)N[C@@H](CCC(N)=O)C(=O)O)[C@@H](C)O)NC(=O)[C@H](CCSC)NC(=O)[C@H](CC(C)C)NC(=O)[C@H](Cc2c[nH]c3ccccc23)NC1=O)C(C)C)C(=O)O)C(=O)O [SEQ ID NO: 9] (H-H[Aib]QGTFTSDK([γGlu-γGlu-Palmitoyl])SKYLD[Aib]RAAQDFVEWLMKTKQ-OH; lactam 24-28; N-terminus assumed) | 2.28 | 0.06
4 | CCCCCCCCCCCCCCCC(=O)N[C@@H](CCC(=O)N[C@@H](CCC(=O)NCCCC[C@H](NC(=O)[C@H](CC(=O)O)NC(=O)[C@H](CO)NC(=O)[C@@H](NC(=O)[C@H](Cc1ccccc1)NC(=O)[C@@H](NC(=O)CNC(=O)[C@H](CCC(N)=O)NC(=O)C(C)(C)NC(=O)[C@@H](N)Cc1c[nH]cn1)[C@@H](C)O)[C@@H](C)O)C(=O)N[C@@H](CO)C(=O)N[C@@H](CCCCN)C(=O)N[C@@H](Cc1ccc(O)cc1)C(=O)N[C@@H](CC(C)C)C(=O)N[C@@H](CC(=O)O)C(=O)NC(C)(C)C(=O)N[C@H]1CCCCNC(=O)CC[C@@H](C(=O)N[C@@H](Cc2ccccc2)C(=O)N[C@H](C(=O)N[C@@H](CCC(N)=O)C(=O)N[C@@H](Cc2c[nH]c3ccccc23)C(=O)N[C@@H](CC(C)C)C(=O)N[C@@H](CCS(C)(=O)=O)C(=O)N[C@@H](CC(=O)O)C(=O)N[C@H](C(=O)N[C@@H](CCCCN)C(=O)N[C@@H](CCC(N)=O)C(=O)O)[C@@H](C)O)C(C)C)NC(=O)[C@H](CCC(N)=O)NC(=O)[C@H](C)NC(=O)[C@H](C)NC1=O)C(=O)O)C(=O)O [SEQ ID NO: 19] (H-H[Aib]QGTFTSDK([γGlu-γGlu-Palmitoyl])SKYLD[Aib]KAAQEFVQWL[Met(O2)]DTKQ-OH; lactam 17-21; N-terminus assumed) | 1.79 | –
5 | CCCCCCCCCCCCCCCC(=O)N[C@@H](CCC(=O)N[C@@H](CCC(=O)NCCCC[C@@H]1NC(=O)[C@@H](NC(=O)[C@H](CO)NC(=O)[C@@H](NC(=O)[C@H](Cc2ccccc2)NC(=O)[C@@H](NC(=O)CNC(=O)[C@H](CCC(N)=O)NC(=O)[C@@H](CO)NC(=O)[C@@H](N)Cc2c[nH]cn2)[C@@H](C)O)[C@@H](C)O)CCC(=O)NCCCC[C@@H](C(=O)N[C@@H](CC(C)C)C(=O)N[C@@H](CC(=O)O)C(=O)NC(C)(C)C(=O)N[C@@H](CCCNC(=N)N)C(=O)N[C@@H](C)C(=O)N[C@@H](C)C(=O)N[C@@H](CCC(N)=O)C(=O)N[C@@H](CC(=O)O)C(=O)N[C@@H](Cc2ccccc2)C(=O)N[C@H](C(=O)N[C@@H](CCC(N)=O)C(=O)N[C@@H](Cc2c[nH]c3ccccc23)C(=O)N[C@@H](CC(C)C)C(=O)N[C@@H](CC(C)C)C(=O)N[C@@H](C)C(=O)N[C@H](C(=O)N[C@@H](CCCCN)C(=O)N[C@@H](CCC(N)=O)C(=O)O)[C@@H](C)O)C(C)C)NC(=O)[C@H](CCCCN)NC(=O)[C@H](CO)NC1=O)C(=O)O)C(=O)O [SEQ ID NO: 6] (H-H[dS]QGTFTSEK([γGlu-γGlu-Palmitoyl])SKKLD[Aib]RAAQDFVQWLLATKQ-OH; lactam 9-13; N-terminus assumed) | 0.78 | –
6 | CCCCCCCCCCCCCCCC(=O)N[C@@H](CCC(=O)N[C@@H](CCC(=O)NCCCC[C@H](NC(=O)[C@H](CC(=O)O)NC(=O)[C@H](CO)NC(=O)[C@@H](NC(=O)[C@H](Cc1ccccc1)NC(=O)[C@@H](NC(=O)CNC(=O)[C@H](CCC(N)=O)NC(=O)C(C)(C)NC(=O)[C@@H](N)Cc1c[nH]cn1)[C@@H](C)O)[C@@H](C)O)C(=O)N[C@@H](CO)C(=O)N[C@@H](CCCCN)C(=O)N[C@@H](Cc1ccc(O)cc1)C(=O)N[C@@H](CC(C)C)C(=O)N[C@@H](CC(=O)O)C(=O)N[C@H]1CCCCNC(=O)CC[C@@H](C(=O)N[C@@H](CC(=O)O)C(=O)N[C@@H](Cc2ccccc2)C(=O)N[C@H](C(=O)N[C@@H](CCC(N)=O)C(=O)N[C@@H](Cc2c[nH]c3ccccc23)C(=O)N[C@@H](CC(C)C)C(=O)N[C@@H](CCS(C)(=O)=O)C(=O)N[C@@H](CC(=O)O)C(=O)N[C@H](C(=O)N[C@@H](CCCCN)C(=O)N[C@@H](CCC(N)=O)C(=O)O)[C@@H](C)O)C(C)C)NC(=O)[C@H](C)NC(=O)[C@H](C)NC(=O)[C@H](CCCNC(=N)N)NC1=O)C(=O)O)C(=O)O [SEQ ID NO: 18] (H-H[Aib]QGTFTSDK([γGlu-γGlu-Palmitoyl])SKYLDKRAAEDFVQWL[Met(O2)]DTKQ-OH; lactam 16-20; N-terminus assumed) | 2.05 | –
7 | CCCCCCCCCCCCCCCC(=O)N[C@@H](CCC(=O)N[C@@H](CCC(=O)NCCCC[C@H](NC(=O)[C@H](CC(=O)O)NC(=O)[C@H](CO)NC(=O)[C@@H](NC(=O)[C@H](Cc1ccccc1)NC(=O)[C@@H](NC(=O)CNC(=O)[C@H](CCC(N)=O)NC(=O)C(C)(C)NC(=O)[C@@H](N)Cc1c[nH]cn1)[C@@H](C)O)[C@@H](C)O)C(=O)N[C@@H](CO)C(=O)N[C@@H](CCCCN)C(=O)N[C@@H](Cc1ccc(O)cc1)C(=O)N[C@@H](CC(C)C)C(=O)N[C@@H](CC(=O)O)C(=O)NC1(C(=O)N[C@H]2CCCCNC(=O)CC[C@@H](C(=O)N[C@@H](Cc3ccccc3)C(=O)N[C@H](C(=O)N[C@@H](CCC(N)=O)C(=O)N[C@@H](Cc3c[nH]c4ccccc34)C(=O)N[C@@H](CC(C)C)C(=O)N[C@@H](CCS(C)(=O)=O)C(=O)N[C@@H](CC(=O)O)C(=O)N[C@H](C(=O)N[C@@H](CCCCN)C(=O)N[C@@H](CCC(N)=O)C(=O)O)[C@@H](C)O)C(C)C)NC(=O)[C@H](CCC(N)=O)NC(=O)[C@H](C)NC(=O)[C@H](C)NC2=O)CCC1)C(=O)O)C(=O)O [SEQ ID NO: 21] (H-H[Aib]QGTFTSDK([γGlu-γGlu-Palmitoyl])SKYLD[Ac4c]KAAQEFVQWL[Met(O2)]DTKQ-OH; lactam 17-21; N-terminus assumed) | 2.44 | –
